± gives the standard deviation of the averaged measurements. In all, about 4,000 sequences were measured (“arbitrary fluorescence units”: median about 830, highest 2% from about 6,500 on). This part holds few or none of the hits.

Among the data in the supplement of paper PMC10681739 are RUNX1 binding intensity values, retold here.
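Also: Full-length recombinant human RUNX1 bound to double-stranded DNA microarray spots, detected with an Alexa488-labelled secondary antibody after the anti-RUNX1 primary, read as scanned spot fluorescence.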

UniProt Q01196, sequence (Q01196 whole entry): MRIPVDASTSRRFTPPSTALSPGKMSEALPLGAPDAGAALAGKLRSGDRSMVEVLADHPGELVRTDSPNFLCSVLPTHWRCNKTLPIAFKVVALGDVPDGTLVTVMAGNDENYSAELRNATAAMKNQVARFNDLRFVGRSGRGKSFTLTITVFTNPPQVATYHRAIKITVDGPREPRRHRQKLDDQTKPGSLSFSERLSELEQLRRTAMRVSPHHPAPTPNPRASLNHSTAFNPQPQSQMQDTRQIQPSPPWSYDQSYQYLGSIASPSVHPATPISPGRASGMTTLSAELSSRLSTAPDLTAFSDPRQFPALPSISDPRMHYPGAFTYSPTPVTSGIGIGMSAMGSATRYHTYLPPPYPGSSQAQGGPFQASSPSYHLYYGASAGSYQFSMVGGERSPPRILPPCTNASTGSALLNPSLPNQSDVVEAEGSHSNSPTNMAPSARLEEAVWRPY

The test deals with RUNX1 (UniProt Q01196). The test can be described thus: RUNX1 binding intensity (PBM fluorescence), RUNX1 alone (arbitrary fluorescence units); higher = stronger binding. Particulars: RUNX1 concentration 2 nM; ETS1 concentration 0 nM. How it is done:
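gcPBM on 36-bp genomic-derived probes (partner site mutated) containing one RUNX1 site and no ETS1 site. Recombinant human RUNX1 (2 nM) was incubated alone or with ETS1 (25 nM) and detected by anti-RUNX1 antibody fluorescence. Values are medians over 4 replicate spots (not normalised). The probes sit in constant array flanks that are not printed.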
The sequence TCCCCTCTCCCCAGCCGCCCGAGACCACAGCCACTC displayed an RUNX1 binding intensity of 1190.
For AGAGCTTGTGGGGAGGAGCCCTCTTCGTTCATGCCC, the RUNX1 binding intensity is 687.
In the case of AGTAACCGCTAGCAATCTCATGAGCAGCAAGCACAA it was 820 ± 9.8; in that of AAAGGGCGGGGAGACGGAATTACCGCGAGCTCTCCG, 768; in that of GGCCGTTCTTGCGCCTGCAGGGTGGTCAGCGGAGGT, 710.
The figure for ACTCAGTCCTGAACCACATTACTTTCATGTCTACGT is 1460.
In the case of TGGGCTGGGCCCGAACCTCACGGACCGCACCCAACC it was 851.
For the sequence TGGTTCAGCCCTCGGTGCCTGCAGGGGACCGCGGAG, the RUNX1 binding intensity amounted to 677.
In turn, GCGGCTGTGGGAGGGAGCAGAACGAAGGGAAGGAAG had an RUNX1 binding intensity of 822.
The figure for ATGTAAACAAGGAGGTGAGTTCTGCGGCCACACTCT is 719.
On to TGAGAAGGCATGATAAGTGACCACATATTTATGCCA, for which the RUNX1 binding intensity turned out to be 802.
Take GCCCGGGCCGCCGCAAGGCTGTCTGGGACATGTAGT: the RUNX1 binding intensity worked out at 752.
In the case of CTCCTGCGGCGACACGCCTAGCAGACGGCGCAAGGC it was 773; in that of GGACATCAGATGTGGTAGAGCAGGCAGAGGCGCTGT, 615.
In the case of TGAGGCTCAGAGGAGGTGACTGGCCCGCAGGGTCAC it was 693; in that of CCTGCAGCCGCAGCGGCACGCGCCTGAAGCCGGGCT, 773.
In the case of AGTCAGGCTGGCAACAGCGATCCCCGGCAACCACAA it was 762.
GCAGCAAATGACGTCAGACCTCACTGCGGGTCTGAG showed an RUNX1 binding intensity of 779.
In the case of GGCGGCACTTGTGCGTACGCTGGAAAACCGCTGGGG, the RUNX1 binding intensity came to 723.
The figure for ACTACATGTCCCAGACAGCCTTGCGGCGGCCCGGGC is 846.
Sequence GGGTGGGCGGTCAAAGCGCACGCGGCAGGGCGAAAG gave an RUNX1 binding intensity of 734.
In the case of GCGCGGCTCCAACGCCGCAGCTTTCCAGGAACACTC it was 829; in that of CCCACTGCCTGTCTGCTTCCCTCCACCGCTCAGACC, 1230.
In the case of TTTTATCCTTCGTTTTTTGTTCTTTGTGGTGGAGGT it was 2070.
The figure for GAAGGCGGTTCAGGTTCGCGGCGGTTCCCGGGTTTT is 780; for GTTCTTCCACCTCCGCGTTACCCACAACGGCAGTGG it is 1400; for GCCCACGCCGCAGGGAGGTGAGACTGAAGGACGCAC it is 727.
As to GACTGCACCTCCTCTGCTTCGAGGTCGGTGGTTAGC, the RUNX1 binding intensity was 836.
In the case of AGGCGCCCAATCCAGTGCATGGTCTGTGGCGCATGC it was 686; in that of AGGAGCCCACCCGCAGAGCTGTGATTTGCTGACTCG, 782.
The figure for CCAGTTCCCGCCTACCGACCTGCTGCACCGCACGGA is 1120.
In the case of TAGCCGTACGTAAATGTTTGTGGTTCTCTGCATCTA it was 1020; in that of CACGTCCTGCGGCCTCAGCCGCCTCTTCGGCCATCC, 964; in that of AGTTGCTGCCTAATCCTGCTGAGCCATTAGCCACAA, 903.
With CCCATTCCCGAGAGTGGCAGGGCTGGGCGCGGTGGG, the RUNX1 binding intensity amounted to 754.
In the case of ACTAGAGCCAACCACCTGCCTTCAGTATTCCAGGCA it was 841; in that of GCCGTGAATGCGGGCTCTCCTGCCGTAAGCTGCCCC, 824; in that of GAACCAGTTCCCTGAAACCATTTACCACATAAATCT, 1140.
CCTCAGGAGAAACCACCCTAGTAGTTCCTCTCCGAG showed an RUNX1 binding intensity of 858.
The figure for GGTCTCTGCTTACGGTCCTTGTGGTAGCACCTCTGT is 930; for CGAAGCCAGCAAATAAGGATAAACCACAGAAAGAAA it is 1140.
In the case of TGCTCTGACCACTGAATAACGCCTCCGTCTGAACAC it was 1260; in that of GATGAAAGAGGGAGTTCTCAAACCACCTTGCCAGTG, 767.
The figure for ACTGCCATACGCCTCAAACGCCAGCCGCAGGCTCTC is 888; for AGGGTTACAAATTCCGTAAACCACAGAAGCAGCAGA it is 1310.
For the sequence TGACGGCCAGCAAGCCTGAAGCCGCAGGGGCCGCCG, the RUNX1 binding intensity was 705.
The figure for CTAGTCTGATTCCTCATCTGCGGCCTGCACGCCCGC is 977; for CTCTTTCACAAAGCAAATGGAAACCACAAAGAGGAC it is 1570; for TGGGCTTCTCTGTGGGTGTGGCGGGAACTAGATGAA it is 708.
Sequence CAACACAGCATGTGCAGTATTATACCGCAAAGCACT registered an RUNX1 binding intensity of 885.
In the case of CTCCTGGGCTCGTGGTCAAAACATGCTGTAGCAAGG it was 753.
Sequence GAGAGGTGGTTGCTGGGAGAGCTGTTCAGGCGCTCA showed an RUNX1 binding intensity of 765.
The sequence CCGACCGCACCAGCTCCCGCGCGTGGTTCAGCCGCT displayed an RUNX1 binding intensity of 1080.
The figure for CCTCACCCAGCAAGTGGCTGCGGCTGTCTCAGGGTT is 890; for CCAGCATGTAGTTTGGCCACTATTGAGTGGTTTGTT it is 822.
With AACCTGCAGACTTGCTGCCATGTGACCACAGGGTCT, the RUNX1 binding intensity was found to be 822.
The figure for ACAGCGGTCATCAAAACACCAGGTCCCTCCTCGGCC is 812; for AGTATACTGTGGTGAGAAACTGCCTGCCATACCAGC it is 824; for GGATTGTGGGGTAGCGAACCCCGGGGCCGTAAGCAG it is 771.
In the case of TGGCGGCGGAGACTGCCCATGGCGCGAGGCCGCAAG it was 708; in that of AGCCTACACCCTGCACTGCTTAACCACAGCCCGCCT, 2130; in that of AGGCTGTGGGTGCCCTCGCCTTGCCCTCAGGCAGGG, 704.
